The source of these data is PMC8419023 (Structure (London, England : 1993), 2021).

The target of the experiment is GST CDK2-cyclin A^173−432 (human, UniProt P24941; P20248 in part). Briefly: pull-down.

B1: Skp1-Skp2^Δ1−16 (complex)
chain 1: not shown
chain 2: MPSIKLQSSDGEIFEVDVEIAKQSVTIKTMLEDLGMDPVPLPNVNAAILKKVIQWCTHHKDDPGSGGTDDIPVWDQEFLKVDQGTLFELILAANYLDIKGLLDVTCKTVANMIKGKTPEEIRKTFNIKNDFTEEEEAQVRKENQWCEEK
B1: the binding result is listed as “binds”.
